# This is one part of the list.
# Columns and labels:
# Test in all cases: glycan array binding signal (z-score within array); higher = stronger binding
# Details in all cases: glycan notation: IUPAC condensed, linker removed
# [1] = target: Gal(b1-3)GlcNAc(b1-6)[Gal(b1-3)]GalNAc
# In short: (§1)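 Glycan array binding is given as a within-array Z-score, which can be read as non-binding when negative. The arrays, 3228 of them, came from the Consortium for Functional Glycomics database and were retained only where the protein sequence was available. Z-scores were averaged across arrays of the same protein sequence at different concentrations or buffers and across linkers.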
# Gal(b1-3)GlcNAc6S = target: Gal(b1-3)GlcNAc6S
# In short: as §1
# [2] = target: Gal(b1-3)[Fuc(a1-4)]GlcNAc
# In short: as §1
# [3] = target: Gal(b1-3)[Fuc(a1-4)]GlcNAc(b1-2)Man
# In short: as §1
# [4] = target: Gal(b1-3)[Fuc(a1-4)]GlcNAc(b1-2)Man(a1-3)[Gal(b1-3)[Fuc(a1-4)]GlcNAc(b1-2)Man(a1-6)]Man(b1-4)GlcNAc(b1-4)[Fuc(a1-6)]GlcNAc
# In short: as §1
# [5] = target: Gal(b1-3)[Fuc(a1-4)]GlcNAc(b1-3)Gal(b1-3)[Fuc(a1-4)]GlcNAc
# In short: as §1
# [6] = target: Gal(b1-3)[Fuc(a1-4)]GlcNAc(b1-3)Gal(b1-4)[Fuc(a1-3)]GlcNAc
# In short: as §1
# [7] = target: Gal(b1-3)[Fuc(a1-4)]GlcNAc(b1-6)GalNAc
# In short: as §1
# [8] = target: Gal(b1-3)[GlcNAc(b1-6)]GalNAc
# In short: as §1
# [9] = target: Gal(b1-3)[Neu5Ac(a2-6)]GalNAc
# In short: as §1
# [10] = target: Gal(b1-3)[Neu5Ac(a2-6)]GlcNAc(b1-4)Gal(b1-4)Glc
# In short: as §1
# [11] = target: Gal(b1-3)[Neu5Ac(b2-6)]GalNAc
# In short: as §1
# Gal(b1-4)Gal = target: Gal(b1-4)Gal
# In short: as §1
# [12] = target: Gal(b1-4)GalNAc(a1-3)[Fuc(a1-2)]Gal(b1-4)GlcNAc
# In short: as §1
# [13] = target: Gal(b1-4)GalNAc(b1-3)[Fuc(a1-2)]Gal(b1-4)GlcNAc
# In short: as §1
# Gal(b1-4)Glc = target: Gal(b1-4)Glc
# In short: as §1
# Gal(b1-4)Glc6S = target: Gal(b1-4)Glc6S
# In short: as §1
# Gal(b1-4)GlcNAc = target: Gal(b1-4)GlcNAc
# In short: as §1
# [14] = target: Gal(b1-4)GlcNAc(a1-6)Gal(b1-4)GlcNAc
# In short: as §1
# Gal(b1-4)GlcNAc(b1-2)Man = target: Gal(b1-4)GlcNAc(b1-2)Man
# In short: as §1
# [15] = target: Gal(b1-4)GlcNAc(b1-2)Man(a1-3)Man(b1-4)GlcNAc(b1-4)GlcNAc
# In short: as §1
# [16] = target: Gal(b1-4)GlcNAc(b1-2)Man(a1-3)[Gal(b1-4)GlcNAc(b1-2)Man(a1-6)]Man(b1-4)GlcNAc(b1-4)GlcNAc
# In short: as §1
# [17] = target: Gal(b1-4)GlcNAc(b1-2)Man(a1-3)[Gal(b1-4)GlcNAc(b1-2)Man(a1-6)]Man(b1-4)GlcNAc(b1-4)[Fuc(a1-6)]GlcNAc
# In short: as §1
# [18] = target: Gal(b1-4)GlcNAc(b1-2)Man(a1-3)[Gal(b1-4)GlcNAc(b1-2)Man(a1-6)][Gal(b1-4)GlcNAc(b1-4)]Man(b1-4)GlcNAc(b1-4)[Fuc(a1-6)]GlcNAc
# In short: as §1
# [19] = target: Gal(b1-4)GlcNAc(b1-2)Man(a1-3)[Gal(b1-4)GlcNAc(b1-2)Man(a1-6)][GlcNAc(b1-4)]Man(b1-4)GlcNAc(b1-4)[Fuc(a1-6)]GlcNAc
# In short: as §1
# [20] = target: Gal(b1-4)GlcNAc(b1-2)Man(a1-3)[GlcNAc(b1-2)Man(a1-6)]Man(b1-4)GlcNAc(b1-4)GlcNAc
# In short: as §1
# [21] = target: Gal(b1-4)GlcNAc(b1-2)Man(a1-3)[GlcNAc(b1-4)][Gal(b1-4)GlcNAc(b1-2)Man(a1-6)]Man(b1-4)GlcNAc(b1-4)GlcNAc
# In short: as §1
# [22] = target: Gal(b1-4)GlcNAc(b1-2)Man(a1-3)[Man(a1-6)]Man(b1-4)GlcNAc(b1-4)GlcNAc
# In short: as §1
# [23] = target: Gal(b1-4)GlcNAc(b1-2)Man(a1-6)Man(b1-4)GlcNAc(b1-4)GlcNAc
# In short: as §1
# [24] = target: Gal(b1-4)GlcNAc(b1-2)Man(a1-6)[GlcNAc(b1-2)Man(a1-3)]Man(b1-4)GlcNAc(b1-4)GlcNAc
# In short: as §1
# [25] = target: Gal(b1-4)GlcNAc(b1-2)Man(a1-6)[Man(a1-3)]Man(b1-4)GlcNAc(b1-4)GlcNAc
# In short: as §1
# [26] = target: Gal(b1-4)GlcNAc(b1-2)[Gal(b1-4)GlcNAc(b1-4)]Man(a1-3)[Gal(b1-4)GlcNAc(b1-2)Man(a1-6)]Man(b1-4)GlcNAc(b1-4)GlcNAc
# In short: as §1
# [27] = target: Gal(b1-4)GlcNAc(b1-2)[Gal(b1-4)GlcNAc(b1-4)]Man(a1-3)[Gal(b1-4)GlcNAc(b1-2)[Gal(b1-4)GlcNAc(b1-6)]Man(a1-6)]Man(b1-4)GlcNAc(b1-4)GlcNAc
# In short: as §1
# [28] = target: Gal(b1-4)GlcNAc(b1-2)[Gal(b1-4)GlcNAc(b1-4)]Man(a1-3)[GlcNAc(b1-4)][Gal(b1-4)GlcNAc(b1-2)Man(a1-6)]Man(b1-4)GlcNAc(b1-4)GlcNAc
# In short: as §1
# [29] = target: Gal(b1-4)GlcNAc(b1-2)[Gal(b1-4)GlcNAc(b1-4)]Man(a1-3)[GlcNAc(b1-4)][Gal(b1-4)GlcNAc(b1-2)[Gal(b1-4)GlcNAc(b1-6)]Man(a1-6)]Man(b1-4)GlcNAc(b1-4)GlcNAc
# In short: as §1
# [30] = target: Gal(b1-4)GlcNAc(b1-2)[Gal(b1-4)GlcNAc(b1-6)]Man(a1-6)[Gal(b1-4)GlcNAc(b1-2)Man(a1-3)]Man(b1-4)GlcNAc(b1-4)GlcNAc
# In short: as §1
# [31] = target: Gal(b1-4)GlcNAc(b1-2)[Gal(b1-4)GlcNAc(b1-6)]Man(a1-6)[Gal(b1-4)GlcNAc(b1-2)Man(a1-3)]Man(b1-4)GlcNAc(b1-4)[Fuc(a1-6)]GlcNAc
# In short: as §1
# [32] = target: Gal(b1-4)GlcNAc(b1-2)[Gal(b1-4)GlcNAc(b1-6)]Man(a1-6)[GlcNAc(b1-4)][Gal(b1-4)GlcNAc(b1-2)Man(a1-3)]Man(b1-4)GlcNAc(b1-4)GlcNAc
# In short: as §1
# [33] = target: Gal(b1-4)GlcNAc(b1-2)[Gal(b1-4)GlcNAc(b1-6)]Man(a1-6)[GlcNAc(b1-4)][Gal(b1-4)GlcNAc(b1-2)[Gal(b1-4)GlcNAc(b1-4)]Man(a1-3)]Man(b1-4)GlcNAc(b1-4)[Fuc(a1-6)]GlcNAc
# In short: as §1
# [34] = target: Gal(b1-4)GlcNAc(b1-3)Gal(b1-3)GalNAc
# In short: as §1
# [35] = target: Gal(b1-4)GlcNAc(b1-3)Gal(b1-3)GlcNAc
# In short: as §1
# [36] = target: Gal(b1-4)GlcNAc(b1-3)Gal(b1-4)Glc
# In short: as §1
# [37] = target: Gal(b1-4)GlcNAc(b1-3)Gal(b1-4)GlcNAc
# In short: as §1
# [38] = target: Gal(b1-4)GlcNAc(b1-3)Gal(b1-4)GlcNAc(b1-2)Man(a1-3)[Gal(b1-4)GlcNAc(b1-3)Gal(b1-4)GlcNAc(b1-2)Man(a1-6)]Man(b1-4)GlcNAc(b1-4)GlcNAc
# In short: as §1
# [39] = target: Gal(b1-4)GlcNAc(b1-3)Gal(b1-4)GlcNAc(b1-2)Man(a1-3)[Gal(b1-4)GlcNAc(b1-3)Gal(b1-4)GlcNAc(b1-2)Man(a1-6)]Man(b1-4)GlcNAc(b1-4)[Fuc(a1-6)]GlcNAc
# In short: as §1
binder,measurement,setting,value
Microvirin-2 (Microcystis aeruginosa) (protein) MPNFSHTCSSINYDPDSTILSAECQARDGEWLPTELRLSDHIGNIDGELQFGDQNFQETCQDCHLEFGDGEQSVWLVCTCQTMDGEWKSTQILLDSQIDNNDSQLEIGGSMPNFSHTCSSINYDPDSTILSAECQARDGEWLPTELRLSDHIGNIDGELQFGDQNFQETCQDCHLEFGDGEQSVWLVCTCQTMDGEWKSTQILLDSQIDNNDSQLEIG,glycan array binding signal (z-score),[1],-0.07
same,glycan array binding signal (z-score),Gal(b1-3)GlcNAc6S,-0.129
same,glycan array binding signal (z-score),[2],-0.137
same,glycan array binding signal (z-score),[3],-0.143
same,glycan array binding signal (z-score),[4],0.648
same,glycan array binding signal (z-score),[5],-0.142
same,glycan array binding signal (z-score),[6],-0.141
same,glycan array binding signal (z-score),[7],-0.126
same,glycan array binding signal (z-score),[8],-0.132
same,glycan array binding signal (z-score),[9],-0.14
same,glycan array binding signal (z-score),[10],-0.147
same,glycan array binding signal (z-score),[11],-0.142
same,glycan array binding signal (z-score),Gal(b1-4)Gal,-0.143
same,glycan array binding signal (z-score),[12],-0.136
same,glycan array binding signal (z-score),[13],-0.138
same,glycan array binding signal (z-score),Gal(b1-4)Glc,-0.136
same,glycan array binding signal (z-score),Gal(b1-4)Glc6S,-0.134
same,glycan array binding signal (z-score),Gal(b1-4)GlcNAc,-0.131
same,glycan array binding signal (z-score),[14],-0.136
same,glycan array binding signal (z-score),Gal(b1-4)GlcNAc(b1-2)Man,-0.121
same,glycan array binding signal (z-score),[15],-0.134
same,glycan array binding signal (z-score),[16],-0.125
same,glycan array binding signal (z-score),[17],-0.134
same,glycan array binding signal (z-score),[18],-0.125
same,glycan array binding signal (z-score),[19],-0.146
same,glycan array binding signal (z-score),[20],-0.135
same,glycan array binding signal (z-score),[21],-0.145
same,glycan array binding signal (z-score),[22],-0.116
same,glycan array binding signal (z-score),[23],-0.128
same,glycan array binding signal (z-score),[24],-0.136
same,glycan array binding signal (z-score),[25],-0.141
same,glycan array binding signal (z-score),[26],-0.131
same,glycan array binding signal (z-score),[27],-0.135
same,glycan array binding signal (z-score),[28],-0.133
same,glycan array binding signal (z-score),[29],-0.138
same,glycan array binding signal (z-score),[30],-0.137
same,glycan array binding signal (z-score),[31],-0.131
same,glycan array binding signal (z-score),[32],-0.14
same,glycan array binding signal (z-score),[33],-0.132
same,glycan array binding signal (z-score),[34],-0.14
same,glycan array binding signal (z-score),[35],-0.146
same,glycan array binding signal (z-score),[36],-0.138
same,glycan array binding signal (z-score),[37],-0.141
same,glycan array binding signal (z-score),[38],-0.011
same,glycan array binding signal (z-score),[39],0.022
